# Results as given in PubChem BioAssay AID1347417 (National Center for Advancing Translational Sciences (NCATS), 2020).
# “And” between values parts separate entries of the source, which are not always exact repeats. Identical values can stand only once. About 5,300 (4.4%) of roughly 120,000 compounds were called active. The shares of active, inactive and inconclusive entries below differ from those in the screen. The call rests on the fitted dose curve; in most records, active means well fitted inhibition curve with a large enough effect; inconclusive means small, poorly fitted or top-dose-only effect; inactive means no such curve, though single readings can be large or run the other way. A potency beside an inconclusive call is a rough fit, not a confirmed value.
# Assay: qHTS Primary assay for Inhibitors of Plasmodium falciparum Dd2 growth in vitro; further: nearly all actives have a fitted effect of over 65% in size
# Settings: P. falciparum Dd2 growth, SYBR Green, 72 h; series mostly up to 28.9 µM
# Method in brief: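 Infected erythrocytes (Dd2, 0.3% parasitemia, 2.5% hematocrit final) are added to compound in RPMI-1640/Albumax II medium, grown 72 h at 37C in low oxygen, then lysed with saponin/Triton-X containing SYBR Green and read by fluorescence.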
# Potency means the concentration at half of the fitted maximal effect; tags describe the fitted curve by direction and shape.
SMILES,Potency,outcome
Cc1nn(-c2ccccc2[N+](=O)[O-])c(C)c1[C@@H]1C=C[C@@H](NCc2ccc(C(C)C)cc2)C1,"inconclusive: 3.55 µM [inhibitor, partial curve, poor fit]",
COCCNC(=O)C[C@@H]1C[C@H]2O[C@H](CNC(=O)NC(C)C)[C@@H](O)[C@H]2O1,inactive,
COc1ccc(-c2cc(N3CCC(NC(=O)Cc4c(F)cccc4Cl)CC3)n[nH]2)cc1,inactive,
O=C1CC(c2noc(-c3ccc(F)cc3)n2)CN1C1CCCCC1 (stereo unspecified),inactive,
CC(=O)Nc1ccc(S(=O)(=O)N[C@H]2CO[C@H]3[C@@H]2OC[C@H]3OC(=O)Nc2cccc3ccccc23)cc1,inactive,
C#C[C@H]1CN2CC[C@H]1C[C@@H]2COC(=O)Nc1ccc(OC(F)(F)F)cc1,active: 11.2 µM,
O=C(Nc1ccc2c(c1)C(=O)N1CCC[C@H]1C(=O)N2)c1cc(-c2ccccc2)n[nH]1,"inconclusive: 1 µM [inhibitor, full curve, poor fit]",
COc1ccc(CN2C(=O)[C@@H]3C[C@@H](CN3Cc3cccnc3)Oc3ccccc32)cc1,"inconclusive: 31.6 µM [inhibitor, single point]",
COc1ccc(CNC(=O)c2cc3n(n2)CC(c2ccc4c(c2)OCO4)OC3)c(OC)c1 (stereo unspecified),"inconclusive: 6.31 µM [inhibitor, partial curve]",
CC(=O)NCCc1ncc(C)n1C1CCCCC1,inactive,
CC(=O)c1cccc(N(C(=O)Cn2nnc3ccccc32)C(C(=O)NCc2ccccc2)c2ccc(F)cc2)c1 (stereo unspecified),"inconclusive: 0.631 µM [inhibitor, full curve]",
CCCN1CCN(c2ncc3c(n2)CCN(Cc2ccc(OC)c(OC)c2OC)C3)CC1,"inconclusive: 11.2 µM [inhibitor, single point]",
Cc1ccc(NC(=O)Cn2nc(-c3ccc(F)cc3)c3cnc4ccc(C)cc4c32)cc1,inactive,
COc1ccccc1C(=O)c1c(N)c(-c2nc(-c3ccccc3)cs2)c2ccccn12,"inconclusive: 15.8 µM [inhibitor, single point]",
CCC(O)c1cc2n(n1)CCN(C(=O)CN1CCOc3ccccc3C1)C2 (stereo unspecified),"inconclusive: 0.251 µM [inhibitor, full curve, poor fit]",
CC(C)n1cc(-c2cc(C(=O)N3CCC(C)(C)C3)c3ccc(F)cc3n2)cn1,"inconclusive: 12.6 µM [inhibitor, partial curve]",
O=C1CCC2(CCN1CC1CC1)CCN(S(=O)(=O)c1cccnc1)CC2,inactive,
O=C(NC1C[C@H]2CC[C@@H](C1)N2C(=O)c1ccoc1)c1ccncc1 (stereo partly specified),inactive,
CCS(=O)(=O)Nc1ccc(C)n(CC(=O)NC2CCCCC2)c1=O,"inconclusive: 10 µM [inhibitor, single point]",
O=C(N[C@@H]1CN(c2ncccn2)C[C@H]1CO)c1nccc2ccccc12,inactive,
COC(=O)[C@@H]1Cc2c([nH]c3ccccc23)[C@H]2C[C@@H](NC3CC3)C[C@@H](c3ccc(F)cc3)N21,active: 4.47 µM,
Cc1ccc(C)c(S(=O)(=O)c2nnn3c2nc(NCc2cccs2)c2sccc23)c1,"inconclusive: 12.6 µM [inhibitor, single point]",

SMILES,Potency,outcome
O=c1[nH]c(C2CCCN(Cc3ccccc3)C2)nc2ccc(F)cc12 (stereo unspecified),"inconclusive: 15.8 µM [inhibitor, partial curve, poor fit] and inconclusive: 4.47 µM [inhibitor, single point]",
CCc1ccc(-n2c(SCC(=O)NC(C)CC)nc3n[nH]c(C)c3c2=N)cc1 (stereo unspecified),"inconclusive: 14.1 µM [inhibitor, single point]",
Cc1cccnc1CN1C[C@@H](F)[C@@H](OCc2nc3ccccc3n2C)C1,inactive,
Cc1nc2scc(CC(=O)NC(C)C)n2c(=O)c1-c1cc(C)n(-c2cccc(F)c2)n1,inactive,
CCc1ccc(C(=O)N2CCN(C(=O)c3nnn4c3COC(c3ccc(C)cc3)C4)CC2)cc1 (stereo unspecified),"inconclusive: 15.8 µM [inhibitor, partial curve, poor fit]",
Cc1ccc2nc(Cl)c3cc(C(=O)NCCCN4CCC(C)CC4)sc3c2c1,"inconclusive: 1 µM [inhibitor, full curve, poor fit]",
O=C(C1CCCC1)N1CCC2(CC1)NCc1ccccc1NC2=O,inactive,
COc1cc(Cl)ccc1OC(=O)c1cn(-c2ccccc2OC)c(=O)c2ccccc12,inactive,
CCCN1C(=O)Cc2ccccc2C1C(=O)N1CCN(c2ccccc2)CC1 (stereo unspecified),"inconclusive: 17.8 µM [inhibitor, single point]",
CCCc1noc(CN2C(=O)NC(c3ccccc3OC)C3=C2COC3=O)n1 (stereo unspecified),"inconclusive: 14.1 µM [inhibitor, partial curve, poor fit]",
CCN1c2cc(C(=O)Nc3cccc(OC(F)(F)F)c3)ccc2C(=O)N2CCCCCC21 (stereo unspecified),inactive,
CC(C)CCNC(=O)c1ccc(Cn2c(SCC(=O)NC(C)C)nc3ccccc3c2=O)cc1,"inconclusive: 17.8 µM [inhibitor, single point]",
Cc1ccc(C(=O)N2CCC(c3nc(-c4ccccc4)no3)C2)s1 (stereo unspecified),,inactive [at 5.79 µM]
Cc1ncsc1CCCNc1nc(-c2ccccn2)nc2c1CCNCC2,inactive,
CCCSC1=NC2(CCN(C(=O)NC3CCCCC3)CC2)N=C1c1ccccc1,inactive,
Cc1cc(F)ccc1NC1CN(C(=O)OC(C)(C)C)C1,"inconclusive: 11.2 µM [inhibitor, single point]",
Cc1cc2cccc(C(=O)N3CCC(Cn4cc(CO)nn4)CC3)c2o1,inactive,
COCCN1C(=O)CS(=O)C12CCN(S(=O)(=O)c1ccccc1)CC2 (stereo unspecified),inactive,
NCc1cccc(-c2cccc(O)c2)c1,"inconclusive: 12.6 µM [inhibitor, partial curve, poor fit]",
CCCCN(C)CC(O)Cn1cc(/C=C/C(=O)c2ccc(OC)c(OC)c2)c2ccccc21 (stereo unspecified),"inconclusive: 1.26 µM [inhibitor, single point]",
Cc1ccc(-c2nc(S(=O)(=O)c3ccc(Cl)cc3)c(N3CCCCC3)o2)cc1,"inconclusive: 15.8 µM [inhibitor, single point]",
COc1cccc(CCC(=O)N2CCC3(CC2)N=C(c2ccccc2)NO3)c1,active: 11.2 µM,

SMILES,Potency,outcome
COc1ccc(-c2nc3c(c(=O)[nH]2)CCN(C(=O)c2ccccc2OC(F)(F)F)C3)cc1,"inconclusive: 11.2 µM [inhibitor, partial curve, poor fit]",
Cc1ccc(CN2CCN(c3cc(C)nc(N)n3)CC2CCO)cc1 (stereo unspecified),"inconclusive: 12.6 µM [inhibitor, partial curve, poor fit]",
O=C(COc1ccccc1)N1CC(CNc2cccnc2)C2(C1)CN(c1ccccc1)C2 (stereo unspecified),"inconclusive: 2.51 µM [inhibitor, partial curve, poor fit]",
COc1ccc(C(=O)NCC(=O)N2CCCCCCNC(=O)CC2c2ccccc2)cc1 (stereo unspecified),"inconclusive: 20 µM [inhibitor, single point]",
O=C1NCc2ccccc2CC12CCN(Cc1ccc(Cl)o1)C2 (stereo unspecified),"inconclusive: 8.91 µM [inhibitor, partial curve]",
CCCCCC(=O)Nc1nc2c(s1)C[C@@H]1[C@](C)(CO)[C@H](O)CC[C@@]1(C)[C@@H]2CC(=O)NCc1cc(F)cc(F)c1,active: 7.94 µM,
CCNC(=O)c1cccnc1OC1CCN(C(=O)CCCc2ccccc2)C1 (stereo unspecified),inactive,
COc1cccc(-c2cc(-c3nc(-c4ccc5nc[nH]c5c4)no3)[nH]n2)c1,"inconclusive: 3.55 µM [inhibitor, partial curve]",
CC(C)CC(=O)NCC(c1ccc2c(c1)OCO2)N1CCN(c2ccccc2F)CC1 (stereo unspecified),"inconclusive: 10 µM [inhibitor, single point]",
CN1CCN(c2cc(=O)c3ccnc(-c4ccnn4C)c3o2)CC1,inactive,
CCCCc1cc(C[C@H]2CNCC[C@H]2CC(=O)N2CCC(Cc3ccccc3)CC2)no1,"inconclusive: 3.16 µM [inhibitor, partial curve, poor fit]",
O=C1NCc2ccccc2CC12CCCN(Cc1cccnc1)C2 (stereo unspecified),"inconclusive: 22.4 µM [inhibitor, single point]",
Cc1ccc(-n2nc(C(=O)N3CCN(c4ccccc4F)CC3)c3c4ccccc4n(C)c3c2=O)cc1,inactive,
COc1ccc(C(=O)N2CCCC(Cc3ncc(C)n3C(C)C)C2)cn1 (stereo unspecified),"inconclusive: 8.91 µM [inhibitor, partial curve, poor fit]",
COc1ccc(C[C@H](NC(=O)C2=C[C@@H](NC(=O)c3cc(OC)ccc3Br)[C@@H](O)[C@H](O)C2)C(N)=O)cc1,inactive,
CN1C(=O)c2ccccc2Sc2ccc(NC(=O)Cc3c(F)cccc3Cl)cc21,inactive,
CCC(=O)Nc1ccc(C)cc1-c1nc2ccccc2n(C(C)C(=O)Nc2ccccc2CC)c1=O (stereo unspecified),"inconclusive: 11.2 µM [inhibitor, single point]",
COc1ccc(C(=O)N[C@H]2C[C@@H](Cc3cc(CN4CCOCC4)on3)C2(C)C)cc1,"inconclusive: 10 µM [inhibitor, partial curve, poor fit]",
O=C(CN1C(=O)NC(c2ccc(Cl)cc2)C2=C1COC2=O)Nc1ccc(F)c(Cl)c1 (stereo unspecified),"inconclusive: 15.8 µM [inhibitor, partial curve, poor fit]",
Cc1nnc(C2CCCCCN2C(=O)c2nn(C)c3ccccc23)o1 (stereo unspecified),inactive,
Cc1ccccc1CC(=O)Nc1ccc2ncnc(N3CCCCC3)c2c1,inactive,
CCN1c2cc(C(=O)Nc3ccc(OC)cc3)ccc2C(=O)N2CCCCC21 (stereo unspecified),"inconclusive: 1 µM [inhibitor, partial curve, poor fit]",
